Over roughly 2,000 compounds, “fractional viability relative to vehicle” has its median near 0.91; the lowest 2% begin near 0.045. The list shows a part of the results.
Tested on: TYKNU
Assay: fractional viability relative to vehicle; TYKNU is a high-grade serous ovarian cancer line; higher = less growth inhibition
Conditions: 72 h
In short: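 Drug treatment lasted 72 h, with cells grown at 37 °C in 5% CO2 in RPMI 1640 supplemented with 10% FBS. Beforehand, TYKNU control cells or their lentiCRISPRv2 knockout derivatives had been seeded at 500 cells per well into drug-stamped 384-well plates carrying a ~2100-compound library at 2 or 10 μM, in duplicate. Viability came from Cell Titer Glo luminescence, with averaged duplicate treatment wells normalised to duplicate control wells in the same plate position.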

[1] = 2uM, genotype: DNM1L knockout (sgDNM1L #1)
[2] = 2uM, genotype: sgCTRLA1 (non-targeting control)
[3] = 10uM, genotype: DNM1L knockout (sgDNM1L #1)
[4] = 10uM, genotype: sgCTRLA1 (non-targeting control)

COc1cc2ncnc(Oc3cccc(NC(=O)Nc4cc(C(C)(C)C(F)(F)F)on4)c3)c2cc1OC
fractional viability [1]: 0.673 | fractional viability [2]: 0.784 | fractional viability [3]: 0.384 | fractional viability [4]: 0.248

O=C(COc1ccc(Cl)cc1)NC1CCC(NC(=O)COc2ccc(Cl)cc2)CC1 (stereo not drawn) [ISRIB (trans-isomer)]
fractional viability [1]: 0.839 | fractional viability [2]: 0.901 | fractional viability [3]: 0.819 | fractional viability [4]: 0.703

NS(=O)(=O)c1cc2c(cc1Cl)N=CNS2(=O)=O [Chlorothiazide]
fractional viability [1]: 0.995 | fractional viability [2]: 1.1 | fractional viability [3]: 1.1 | fractional viability [4]: 1.06

COc1ccc(-c2cnc3c(-c4cccc5ncccc45)cnn3c2)cc1
fractional viability [1]: 1.18 | fractional viability [2]: 1.28 | fractional viability [3]: 1.1 | fractional viability [4]: 1.2

O=C(NCc1ccncc1)C12CC3CC(C1)CC(c1ccc(Cl)cc1)(C3)C2
fractional viability [1]: 0.946 | fractional viability [2]: 0.963 | fractional viability [3]: 0.585 | fractional viability [4]: 0.797

CCOC(=O)[C@H](CCc1ccccc1)N[C@@H](C)C(=O)N1[C@H](C(=O)O)C[C@@H]2CCC[C@@H]21 [Ramipril]
fractional viability [1]: 1.03 | fractional viability [2]: 1.15 | fractional viability [3]: 0.997 | fractional viability [4]: 1.06

NC(=O)c1ncn([C@@H]2O[C@H](CO)[C@@H](O)[C@H]2O)n1 [Ribavirin]
fractional viability [1]: 1.01 | fractional viability [2]: 1.28 | fractional viability [3]: 1.01 | fractional viability [4]: 1.33

Cc1ccc(S(=O)(=O)n2c(N)nc3ccccc32)cc1 [ML130 (Nodinitib-1)]
fractional viability [1]: 1.07 | fractional viability [2]: 1.13 | fractional viability [3]: 0.84 | fractional viability [4]: 1.16

CC[C@H]1OC(=O)[C@H](C)[C@@H](O[C@H]2C[C@@](C)(OC)[C@@H](O)[C@H](C)O2)[C@H](C)[C@@H](O[C@@H]2O[C@H](C)C[C@H](N(C)C)[C@H]2O)[C@](C)(OC)C[C@@H](C)C(=O)[C@H](C)[C@@H](O)[C@]1(C)O [Clarithromycin]
fractional viability [1]: 1.1 | fractional viability [2]: 1.18 | fractional viability [3]: 1.08 | fractional viability [4]: 1.08

O=[N+]([O-])c1ccc2c(c1)S(=O)(=O)C=C2 [Stattic]
fractional viability [1]: 0.0799 | fractional viability [2]: 0.101 | fractional viability [3]: 0.0327 | fractional viability [4]: 0.0222

CCCCCCCCC/C(=C\C1=C(C)C(=O)C(OC)=C(OC)C1=O)C(=O)O
fractional viability [1]: 0.847 | fractional viability [2]: 0.878 | fractional viability [3]: 0.855 | fractional viability [4]: 0.701

C[C@H]1COC2=C1C(=O)C(=O)c1c2ccc2c1CCCC2(C)C [Cryptotanshinone]
fractional viability [1]: 0.306 | fractional viability [2]: 0.399 | fractional viability [3]: 0.0756 | fractional viability [4]: 0.132

NC(=O)Cc1cccc(C(=O)c2ccccc2)c1N [Nepafenac]
fractional viability [1]: 0.974 | fractional viability [2]: 0.954 | fractional viability [3]: 0.92 | fractional viability [4]: 0.878

CN(C)CC[C@H](CSc1ccccc1)Nc1ccc(S(=O)(=O)NC(=O)c2ccc(N3CCN(Cc4ccccc4-c4ccc(Cl)cc4)CC3)cc2)cc1[N+](=O)[O-]
fractional viability [1]: 0.917 | fractional viability [2]: 0.97 | fractional viability [3]: 0.544 | fractional viability [4]: 0.956

Nc1ccccc1NC(=O)c1ccc(CNC(=O)OCc2cccnc2)cc1 [Entinostat (MS-275)]
fractional viability [1]: 0.493 | fractional viability [2]: 0.575 | fractional viability [3]: 0.117 | fractional viability [4]: 0.191

Source: the supplement of paper PMC5919970
